Laboratory results as given in the RNAGym collection of RNA variant scans (doi:10.7554/elife.90254).
Read counts are not given, so values of variants with three or more changes are uncertain.

B1: OR4K15 (parent)
chain: GUUAACGGUCAUAGGCCAUGGAAACUAGGAGCACCAUUUCGCUGCCAGUGAAGAAAUGAACAAAGAAAAUCUGGGCCAGGCAGGCAUCAAAAGAAAUAGUCUUGCGCUCAACCAGAAAGUCUGUAAUCAUUUUAAGGGUA

Variants of: B1
Assay: self-cleavage, relative activity (ratio to wild type); higher = more cleavage; in vitro, sequencing; the parent is a self-cleaving ribozyme

Row | Variant | self-cleavage
1 | A23G U49G A95G U100C U102A U108C A117G A129C G137A | 0
2 | U87C A116U U130C U139C | 0.06
3 | U49C A69C A94G | 2.21
4 | G7U U12A A18G C35A U122C | 1.5
5 | A22G A82G U100C | 1.22
6 | A67G U100C A111G G136A | 0.02
7 | U9G A22G U57C A78G A89U A95G | 0.35
8 | U43C A95G A110G | 0.16
9 | A78G A110G A135G | 0.04
10 | U39C C105G U131A | 0.06
11 | A22G A24C A30G U70C A135U | 0.88
12 | A22U U87A C113U U130C | 0.04
13 | A36U A114G A126G | 0.38
14 | A23G A111G U122G | 0.04
15 | A36C U38C A118G | 1.46
16 | A18G C42U A52G A60G U87C U97C A126G | 0.9
17 | U87A U108A U131C | 0.02
18 | U43C U103C G138A | 1.03
19 | U97C A111G A116C | 0
20 | U26C A36G A54G A63U U100C A110G U120C G123A | 0.52
21 | A18G A27C A116G | 0.74
22 | U9C A54G A63G | 2.01
23 | U2C A91U U130C | 0.41
24 | A18C A118G U130C | 0.06

Row | Variant | self-cleavage
25 | A91G A110G A118G | 0.19
26 | U2C A64U A89U U102C | 0.74
27 | A22G U49C A56G C107U | 0.02
28 | A24G A78G U87C A91G | 0.07
29 | A11G G28A U108C U127C | 0.02
30 | A56G A59G A82G | 0.73
31 | U43C A118G A125G A129G | 0.07
32 | U38C A63G U70C A96G | 1.28
33 | C46A G74C A89G A126U | 0.14
34 | A62G A117U U122A | 1.54
35 | A60G A89G A90C A95G A111G U120A | 0.01
36 | A22G U102C U103C A110G A125G | 0.01
37 | A18G U39A A89G A90G A95G | 1.54
38 | A54U U87A U120C A135G | 0.97
39 | A36C A56G A90G U102A U120C | 0.21
40 | U2C C17A G53U A67G | 0.94
41 | A33U A118U U139C | 0.73
42 | C32U A62U U122A | 1.88
43 | G44A A60G A68U | 1.23
44 | G48A A64U A94G A117G | 1.22
45 | A5G A55G A63G A78C U100C | 0.71
46 | A22G A30G A33G A55G A82G | 0.25
47 | A60G A64G A140G | 1.07
48 | A5C U43A A52G U102C | 2.02

Row | Variant | self-cleavage
49 | C61U A78U A95G A96C | 0.14
50 | A30G U72C A117G A125G | 0.09
51 | U39C A96U U102C | 1.37
52 | A11G A86C U120C A134G | 0.09
53 | U12C U37C U102C | 1
54 | G31A A36G A59U A135G | 1.27
55 | A24G A27G A129U | 0.66
56 | A51G A62G A82G A117G | 0.45
57 | U2A C40U A55G A94U | 1.45
58 | A22G A67G U122A | 1.75
59 | U9C A24G U57C A78C A118G | 0.09
60 | U37C A62G A117G | 0.88
61 | A5G A59G A114G A129G | 0.29
62 | A22G A94G U127A | 1.61
63 | G31A A67C U122C | 1.6
64 | A68G U122C A129G | 0.79
65 | A60U A62G U122C | 0.49
66 | U9C A11G U43A | 1.66
67 | U19C A60G U122G | 1.94
68 | A60G A67C A117U | 0.53
69 | U9C A30U A69G | 1.63
70 | A23G A27U A51G U127C A129U | 0.83
71 | U43A A47G A51G A114U U120C | 0.05
72 | A47G A59U A67G U120A | 1.12

Row | Variant | self-cleavage
73 | A24G A62U A110G U124A A126G | 0.16
74 | A33G A95U A98G | 0.4
75 | U43A U57C A140U | 1.19
76 | U3A U43C U49C C121U | 1.11
77 | G58A A117G U130C A140U | 0.24
78 | A11U G115A U122C | 0.02
79 | A56G A86G A140G | 1.16
80 | A52G U72A U102A | 0.11
81 | U9C A24G A60G A69G A86G U120C G137A | 0.64
82 | U19C A62G A116G | 0.44
83 | U9C A95G U108A | 0
84 | A22G A90G U97C A111C U122C A129G | 0
85 | A18G A95G U102C | 2.22
86 | U3A C6U A59G A66G A86G U139C | 0.69
87 | A30G A54G U57C U103C | 0.55
88 | A62G C76U U108C | 0.03
89 | U87A A96U U108A C128U | 0.02
90 | A5G A11G A56G A126G | 0.95
91 | A98G U108C U130C | 0
92 | A5G C61A A117G | 1.31
93 | A24U A27G C71A A95G U132C | 0.51
94 | G80C A126G A129G | 0.02
95 | A90G A94G U108C A117G | 0.02
96 | U9C U26C A36G U130C | 0.91

Row | Variant | self-cleavage
97 | C45A A68G A78G A89G | 0.29
98 | U43C C77U A94G U124A | 0.76
99 | A54G A111G A134G | 0
100 | G20C A64U U102C | 1.67
101 | A24G A59G A66G U108A | 0.03
102 | A22G A78U A91G | 0.12
103 | A11G A23G A62G A66G U87A A111G U120C U131C | 0
104 | U2A U9C G41U A96G U120C | 0.23
105 | A13G A86G A129G U139C | 1.04
106 | A24G A55C A78U A86G A92G | 0.08
107 | C61U A66G A90G | 1.78
108 | U2C U38C U132A | 1.4
109 | U3C A36G A51G | 1.02
110 | G83A A91G U102C | 0.25
111 | A63G A89U U100A | 2.48
112 | U43A A51G A95G U102A U108A | 0.02
113 | A68G A86U A89G | 1
114 | A22C C40U A63G A69G A89C | 1.04
115 | A13G A51U U122A | 1.58
116 | U9C U100C U124C | 1.75
117 | A23G A68G U70C | 0.65
118 | A30G A67G U103C | 0.71
119 | A47G A55U A78U A111G | 0.03
120 | A67G A78U U103A A110G A117G | 0.04

Row | Variant | self-cleavage
121 | U37C A59G A95G U97C A117U | 0
122 | C46U U57C A59U | 1.14
123 | U49C A98U A126U | 2.16
124 | A33G A67U A89C U120C | 0.14
125 | A22G A27G A90G | 1.2
126 | U2C A24U A52G A78G A98C A114G | 0.01
127 | A59G A67G A94U A114G | 0.4
128 | A22C A59G U120A | 1.26
129 | A24G A62G A68U | 1.35
130 | U43C A117G A118G | 1.14
131 | U19C U43C U57A A62G A110G | 0.06
132 | A33G A54G A69G A82G A90G | 0.28
133 | A86U A95G U102C U131C | 1.86
134 | A5G A24G A33G A52G A82G A86G | 0.36
135 | U43A A78G U103A | 0.11
136 | U26C U43A A55G A86U A92G A117G U120C | 0.25
137 | A23G A62G A94U A111G A116G | 0.15
138 | A60U A96G G106U U122C | 0.01
139 | G7U A94G A118G | 1.14
140 | U19C A52G A89G U131A A135G | 0.64
141 | A63G A67G A140U | 1.41
142 | U37C U43C A60G A66U U127C | 0.37
143 | U19C A24G A59G A66G A94G U108C U139C | 0.01
144 | U39C A55G A91G A96G | 1.54

Row | Variant | self-cleavage
145 | U2C A36U A135U | 0.55
146 | U12C A13U A94G A117U | 0.18
147 | A59U A78U A96C | 0.2
148 | U3C A27U A62G | 1.12
149 | A5G A59G U97C | 1.13
150 | A18G A82U U132C U139C | 0.05
151 | A11C U100A U131C U132C | 0.66
152 | A5C C17U A134G | 1.29
153 | G106A U130A U131C | 0.01
154 | U87A A91G U122C | 1.21
155 | A54G A64G A111G | 0
156 | A55G A67G A111U A126G | 0.05
157 | G7A A56G A116U | 0.05
158 | G65A A91U U122G | 2.88
159 | G41U A60U A92G U100C A126G | 2.16
160 | U3A A11G A33U A47U A56G A78U U124A | 0.09
161 | A13G U39A A125G | 0.51
162 | A59G A68U U120C U131C | 0.97
163 | U19C U87C U100C U122A | 1.44
164 | A5G U19G U37C A110G | 0.09
165 | A23G A96G G136A | 1.42
166 | C17A A86G G106A U127A | 0.02
167 | A13U A47C U87C A92C A118U | 0.12
